Paper PMC4336329 (PLoS ONE, 2015)
Screen size: about 310,000 compounds; about 14,000 (4.5%) showed an effect of 50% or more. The effect is printed as a negative number. The list shows a part of the results.

biological target: human ether-à-go-go-related gene (hERG) potassium channel (human, UniProt Q12809); assay: primary screen, population patch clamp on CHO cells stably expressing hERG
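Further: peak tail current of the secondary pulse compared with the same well before compound.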

Chain of human ether-à-go-go-related gene (hERG) potassium channel (Q12809 whole entry, looked up): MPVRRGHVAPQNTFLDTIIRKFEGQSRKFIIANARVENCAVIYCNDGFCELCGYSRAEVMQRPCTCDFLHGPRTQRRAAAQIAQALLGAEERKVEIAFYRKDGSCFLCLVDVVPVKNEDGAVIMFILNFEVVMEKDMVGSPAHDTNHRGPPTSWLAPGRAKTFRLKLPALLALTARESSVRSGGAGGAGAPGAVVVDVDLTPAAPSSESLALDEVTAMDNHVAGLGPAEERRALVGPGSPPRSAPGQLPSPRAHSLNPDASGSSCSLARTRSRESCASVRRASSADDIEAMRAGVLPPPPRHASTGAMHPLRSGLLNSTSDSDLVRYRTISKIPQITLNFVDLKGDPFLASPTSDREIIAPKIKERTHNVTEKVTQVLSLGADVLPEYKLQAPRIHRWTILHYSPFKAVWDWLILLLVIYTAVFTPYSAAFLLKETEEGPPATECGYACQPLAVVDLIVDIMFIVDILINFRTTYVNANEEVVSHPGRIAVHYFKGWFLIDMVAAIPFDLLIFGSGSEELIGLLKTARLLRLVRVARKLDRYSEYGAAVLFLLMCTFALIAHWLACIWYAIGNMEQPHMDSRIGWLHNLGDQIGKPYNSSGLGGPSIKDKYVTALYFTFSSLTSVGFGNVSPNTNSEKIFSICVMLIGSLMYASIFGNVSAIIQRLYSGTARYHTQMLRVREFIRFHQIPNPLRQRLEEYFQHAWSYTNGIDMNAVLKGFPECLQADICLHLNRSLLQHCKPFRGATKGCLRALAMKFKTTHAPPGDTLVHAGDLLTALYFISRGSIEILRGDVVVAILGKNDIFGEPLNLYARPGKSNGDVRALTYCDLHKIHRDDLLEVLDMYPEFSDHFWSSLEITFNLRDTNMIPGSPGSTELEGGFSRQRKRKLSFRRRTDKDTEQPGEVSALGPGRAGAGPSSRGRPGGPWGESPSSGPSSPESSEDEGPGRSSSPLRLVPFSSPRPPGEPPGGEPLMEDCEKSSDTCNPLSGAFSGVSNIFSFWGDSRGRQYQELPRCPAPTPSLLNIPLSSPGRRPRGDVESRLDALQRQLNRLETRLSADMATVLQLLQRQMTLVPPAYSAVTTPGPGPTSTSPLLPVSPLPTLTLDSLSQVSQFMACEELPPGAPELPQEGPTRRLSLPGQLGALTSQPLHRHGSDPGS

| Compound | hERG current change (%, negative = inhibition) at 10uM [%] |
| --- | --- |
| N#CCSCC(=O)Nc1ccc(Br)cc1 | 16.5 |
| COc1ccc(Cl)c(NCCC(=O)O)c1 | 15.5 |
| CC1(C)CC(=O)c2c(oc3ccc(NS(=O)(=O)c4ccc(C(=O)O)cc4)cc23)C1 | 32.5 |
| Cc1cccc(-n2c(O)c(C=NCCCN3CCOCC3)c3ccccc3c2=O)c1 | -23.7 |
| COc1ccc(C2CC(c3ccccc3)Nc3nc(NC(=O)c4cccs4)nn32)cc1 (stereo not drawn) | -52 |
| C#CCNC(=O)C1=C[C@@H](C2CCCCC2)[C@H](CCCO)[C@@H](OCC)O1 | -5.53 |
| O=c1ccc(-c2ccc(S(=O)(=O)NCC3CCN(Cc4cccc(F)c4)CC3)s2)n[nH]1 | -8.55 |
| CCN(CC)c1ccc(N/C(N)=N/c2nc(C(F)(F)F)cc(=O)[nH]2)cc1 | 24.6 |
| Cc1cc[n+](-c2[nH]c(=O)sc2/C=N/N=C(\[O-])c2ccccc2)cc1 | -9.02 |
| COc1cc(C2C(C#N)=C(N)N(c3cccnc3)C3=C2C(=O)CC(C)(C)C3)ccc1O (stereo not drawn) | -4.86 |
| Cc1cccc(N2CC(O)(c3cccs3)[N+]3=C2CCCC3)c1C.[Br-] (stereo not drawn) | -43.5 |
| CCOC(=O)c1nc(NCCc2ccccc2)sc1C | 5.5 |
| CC1(c2ccccc2)CC(C)(C)N2C(=O)C3(C(C#N)=C(N)Oc4cc(O)ccc43)c3cccc1c32 (stereo not drawn) | 22.7 |
| C=CCn1c(SCC(=O)O)nc2sc(CC)cc2c1=O | 13.8 |
| COc1cccc(-c2ncc3ccccc3c2COC(=O)c2cccc(Br)c2)c1 | 5.74 |
| Cc1cc(OCC(=O)NC2CC(C)(C)NC(C)(C)C2)c2c(C)cc(=O)oc2c1 | -5.66 |
| Cc1noc(C)c1COc1ccccc1C(=O)NCCc1ccc(S(N)(=O)=O)cc1 | -1.27 |
| Cc1c(OCC(=O)N[C@H](C(=O)O)c2ccccc2)ccc2c3c(c(=O)oc12)CCCC3 | 19.8 |
| O=C(NC(Cc1ccccc1)C(=O)O)/C(=C/c1ccccc1)NC(=O)c1ccco1 (stereo not drawn) | 6.28 |
| CC1CCc2c(sc(NC(=O)c3nc4ncccn4n3)c2C#N)C1 (stereo not drawn) | 4.71 |
| O=C(O)C1CCN(C(=O)COc2ccc(Br)cc2)CC1 | 38 |
| C=CCOc1ccc(CNn2cn[nH]c2=S)cc1 | 9.3 |

| Compound | hERG current change (%, negative = inhibition) at 10uM [%] |
| --- | --- |
| Cc1c(C(=O)N2CCCC(C)C2)sc2ncnc(N3CCCCC3C)c12 (stereo not drawn) | -21 |
| CC(C)Oc1cc(S(=O)(=O)N2CCCCC2)ccc1N | 2.99 |
| O=C(Nc1ccc(Br)cn1)c1ccc2nccnc2c1 | -0.493 |
| C=CCNc1nc(C(=O)OCC(=O)Nc2ccccc2C(F)(F)F)cs1 | 2.65 |
| COC(=O)C1C(=O)C=C(N2CCOCC2)CC1(C)C (stereo not drawn) | 6.2 |
| COC(=O)c1ccccc1NC(=O)CN(C)Cc1ccccc1 | 4.5 |
| COc1cc(NS(=O)(=O)c2ccc(NC(=O)c3ccc(Cl)cc3Cl)cc2)ncn1 | -9.46 |
| COc1ccccc1OCCCOc1ccc([N+](=O)[O-])cc1Cl | 3.35 |
| Cc1cccc(C(=O)OCC(=O)NC(=O)NCc2ccccc2)c1 | -7.32 |
| O=C(COC(=O)c1ccccc1[N+](=O)[O-])Nc1cccnc1Cl | 9.34 |
| CC(=O)N1CC(C)Sc2ccc(S(=O)(=O)NCCc3ccccc3)cc21 (stereo not drawn) | -0.777 |
| CCC(C)(C)NC(=O)C(c1ccc(OC)cc1)N(C(=O)CCC(=O)Nc1cc(C)on1)c1ccc(F)cc1 (stereo not drawn) | 15.7 |
| COc1ccccc1NC(=O)CON=C(N)CC(=O)NC1CCCCC1 | -1.99 |
| CN(CC(=O)Nc1cccc(F)c1)C(=O)CN1c2cccc3cccc(c23)S1(=O)=O | -2.66 |
| CCCCNC(=S)NC(=O)c1ccc([N+](=O)[O-])cc1 | -40.4 |
| Cc1cc(=O)[nH]c(SCC(=O)Nc2ccc(C(=O)O)cc2)n1 | 5.37 |
| O=C(/C=C/c1ccccc1Cl)Nc1ccncc1 | -3.65 |
| Cc1cccc(C)c1OCc1nnc2c3cnn(C)c3ncn12 | -25.2 |
| CC(=O)c1cccc(NC(=O)N2CCC(C(=O)c3ccc(F)cc3)CC2)c1 | -28.1 |
| COc1ccc(CN2CCn3nc(C(=O)NC4CC4)cc3C2=O)cc1 | 4.43 |
| CCOc1ccc(NC(=O)CSc2nc3ccccc3c(=O)n2Cc2cccs2)cc1 | 13.6 |
| CCOC(=O)c1cc2cc(-c3c(C(=O)OCC)oc4cc(O)cc(O)c4c3=O)ccc2o1 | -17.2 |

| Compound | hERG current change (%, negative = inhibition) at 10uM [%] |
| --- | --- |
| O=C(CSc1ccccc1C(=O)O)c1ccc(Cl)cc1 | 16.6 |
| CCCCC1(CC)C(=O)NC(=O)NC1=Nc1ccc(OC)cc1 (stereo not drawn) | -0.068 |
| CN1c2ccccc2C(=O)/C(=C\Nc2ccc(F)cc2F)S1(=O)=O | 12.4 |
| COc1cc(OC)c(OC)cc1CNC(=O)c1ccc(S(=O)(=O)N2CCCCC2)cc1 | -20.8 |
| C=CCn1c(SCC(=O)N2CCN(c3ccc(F)cc3)CC2)nnc1-c1ccco1 | -70.2 |
| COc1ccccc1N1CCN(C2CCCN(C(=O)c3ccoc3)C2)CC1 (stereo not drawn) | -19.7 |
| O=C1CC(=O)C(n2cncn2)C(c2cccc(Cl)c2)C1 (stereo not drawn) | 15.6 |
| COc1ccc2[nH]c(CN3CCC(n4nccc4NC(=O)C4CC4)CC3)c(C)c2c1 | -63.3 |
| Cc1ccccc1OCC(=O)NC(Cc1c[nH]c2ccccc12)C(=O)O (stereo not drawn) | 20.4 |
| Nc1ccc(-c2nc3ncccc3o2)c(O)c1 | 8.03 |
| CCc1ccc(/C=c2\s/c(=C\C(=O)C(C)(C)C)[nH]c2=O)cc1 | 15.2 |
| CCCn1c(SCC(=O)Nc2nnc(C(C)C)s2)nc2c1c(=O)n(C)c(=O)n2C | 9.55 |
| COc1ccc(CCNc2nc(C)c(C(C)=O)s2)cc1OC | 21.6 |
| O=C(O)C(=O)O.c1ccc(OCCN2CCOCC2)cc1 | 12 |
| COC(=O)Nc1ccc2c(c1)ncn2C1CCCCC1 | -23.3 |
| O=C1CCS/C(=N\N=C\c2ccc(Cl)cc2Cl)N1 | -16.5 |
| Cc1ccc(OCc2nnc(NC(=O)c3ccco3)s2)c(C)c1 | 13.4 |
| O=C(O)c1ccc(-c2nc(-c3ccc(Cl)cc3Cl)cs2)cc1 | 18.5 |
| CN(C)S(=O)(=O)N1CCN(c2ccc([N+](=O)[O-])cc2)CC1 | -76.7 |
| Cn1cc(Br)c(C(=O)NC2CCCCCC2)n1 | 2.74 |
| CCN(CC)c1ccc(/C=C2/C(=O)NC(=O)N(Cc3ccco3)C2=O)cc1 | -25 |
| Cc1cccc(OP(=O)(Nc2c(C)n(C)n(-c3ccccc3)c2=O)Oc2cccc(C)c2)c1 | -20.5 |

| Compound | hERG current change (%, negative = inhibition) at 10uM [%] |
| --- | --- |
| O=C(COC(=O)CN1C(=O)C2CCCCC2C1=O)NCc1ccc(Cl)cc1Cl (stereo not drawn) | -2.1 |
| O=C(CSc1nc2ccccc2c(=O)n1-c1ccccc1Cl)Nc1cccc(S(=O)(=O)N2CCOCC2)c1 | -6.76 |
| Cc1cc(NC(=O)CSc2nc(N)c(NC(=O)c3ccccc3)c(=O)[nH]2)no1 | 19.9 |
| CC(=O)Oc1ccccc1C(=O)N(C1CCCCC1)C1CCCCC1 | 15.3 |
| CCOC(=O)C1=C(C)OC(N)=C(C#N)C1c1ccc(O)c(OC)c1 (stereo not drawn) | 2.39 |
| CCC1CCCCN1C(=O)CCc1nnc(Cc2cc(OC)ccc2OC)o1 (stereo not drawn) | 11.9 |
| O=[N+]([O-])c1ccc(CNc2ccc(Cl)cc2)s1 | -9.66 |
| Cc1cccc(N2CCN(C(=S)c3ccccc3)CC2)c1 | 9.16 |
| O=C(Nc1cccc(-c2ccc(N3CCCCC3)nn2)c1)c1ccc(Br)o1 | -12.4 |
| COc1ccc2[nH]c3c(c2c1)CCN1C(=O)N([C@@H](C)C(=O)NCCc2ccc(F)cc2)C(=O)[C@]31C | -17.9 |
| CCn1c(SCC(=O)N(C)CC(=O)Nc2ccc(OC)cc2)nnc1-c1ccco1 | 6.1 |
| Cc1ccc2c(CC(=O)NNC(=O)c3ccccc3)coc2c1 | 1.23 |
| COc1ccccc1NS(=O)(=O)c1ccc(N/N=C(\C)C(C)C)c([N+](=O)[O-])c1 | 9.29 |
| CC(=O)Oc1ccc2c(=O)c(/C=N/c3cc(=O)[nH]c(=S)[nH]3)coc2c1 | -5.74 |
| CCOC(=O)c1c(NC(=O)CSc2nnc(C)c(=O)[nH]2)sc(C)c1-c1ccc(C)cc1 | -2.13 |
| CCOC(=O)c1c(S(=O)(=O)Nc2ccccc2OCC)c(C)n(C)c1C | -5.04 |
| NC(=O)NC(=O)COC(=O)CN1C(=O)C2CCCCC2C1=O (stereo not drawn) | 1.18 |
| CCOC(=O)c1cc(NC(=O)N(C(C)C)C(C)C)c(C)nc1C | -4.36 |
| COc1ccc(OC)c(NC(=O)COC(=O)CNC(=O)c2ccc(OC)c(OC)c2)c1 | -14.6 |
| Cc1ccnc(NS(=O)(=O)c2ccc3ccccc3c2)n1 | 14.4 |
| CCOc1ccc(NC(=O)c2ccc(F)cc2F)cc1 | 10.8 |
